This is one part of the list.
test system: T1, Caupolican (Caup) homeodomain DNA-binding domain; test: PBM E-score (8-mer, recovered from the published 9-mer minima) (E-score (dimensionless, -0.5 to 0.5)); Drosophila protein; higher = stronger relative binding preference, active = 0.31 or more
T1 sequence: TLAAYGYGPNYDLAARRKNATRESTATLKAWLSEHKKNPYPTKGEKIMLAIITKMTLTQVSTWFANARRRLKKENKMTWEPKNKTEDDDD
In short: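 Caup's homeodomain DNA-binding domain (residues 214-303) was made by in vitro transcription and translation and applied at 100 nM to custom-designed protein binding microarrays. Each value is an enrichment score that gives relative binding preference for a short DNA word, with higher meaning stronger. The 8-mer values were recovered from published 9-mer scores, each of which was the minimum of its two constituent 8-mer scores. A cutoff of 0.31 marks candidate sites.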

Row | Sequence | PBM E-score
1 | AAAGAACA | inactive: 0.269
2 | CTGTTGTA | inactive: 0.273
3 | GGGAGCCC | inactive: -0.256
4 | AACATTTA | inactive: 0.275
5 | AGCCATGA | inactive: 0.00934
6 | AGCGGAAG | inactive: -0.161
7 | AGAGATAT | ≥ 0.084
8 | AGTGAAGA | inactive: -0.0882
9 | AATTTTCC | inactive: 0.0741
10 | GAGTGCAC | inactive: -0.0329
11 | GACAACAA | active: 0.342
12 | GCCGGCGA | inactive: -0.275
13 | CCTATAAA | inactive: -0.0151
14 | CGGGAAAA | inactive: -0.0322
15 | AGCCGTAT | inactive: -0.0406
16 | GACCGGCC | inactive: -0.22
17 | ATTTTGCA | inactive: 0.0959
18 | CCAGTGCC | inactive: -0.15
19 | AAATTAGT | inactive: 0.154
20 | AAAAGCCG | inactive: -0.135
21 | ACGCAGCC | inactive: -0.145
22 | GAGGCAGA | inactive: -0.105
23 | CCCGCCGG | inactive: -0.246
24 | CAATTAAC | inactive: 0.152

Row | Sequence | PBM E-score
25 | ACGTAGTC | inactive: 0.00594
26 | CCGCGCAC | inactive: -0.17
27 | AATCAAAA | inactive: 0.162
28 | CGTGAATC | inactive: 0.0702
29 | GGTCCAGA | inactive: -0.0264
30 | AGGGGTTC | inactive: -0.189
31 | AATTGGCA | inactive: 0.0986
32 | ATCTTGAC | inactive: -0.0426
33 | CCAGTACA | inactive: 0.3
34 | GAACGGTA | inactive: 0.0218
35 | AGGTGGAC | inactive: -0.0643
36 | GTTCCGCA | inactive: 0.069
37 | GCGGCTAC | inactive: -0.0721
38 | CGTCTACC | inactive: -0.0699
39 | ACTGCCTG | inactive: -0.0684
40 | ACGTGAAT | inactive: 0.0518
41 | AACGTACG | inactive: 0.0611
42 | CGCTCACG | inactive: -0.159
43 | AAGTAGAT | inactive: 0.0681
44 | ACGATGCG | ≥ 0.0108
45 | AAACGTCC | inactive: -0.0263
46 | CCGCCCCG | inactive: -0.265
47 | CGTTTTCA | inactive: 0.0134
48 | GTGTTCGA | inactive: 0.236

Row | Sequence | PBM E-score
49 | GCGAGCAC | inactive: -0.0716
50 | GCTCAAAC | inactive: 0.0081
51 | ATTATGAA | inactive: 0.169
52 | AGTCGCAT | inactive: 0.0361
53 | GCTTCACA | inactive: -0.019
54 | AATCTCAG | inactive: 0.0346
55 | ACTTCTTG | inactive: 0.0436
56 | CTGGTGGC | inactive: -0.213
57 | CGCTAGTA | inactive: 0.0576
58 | GATGTCGC | inactive: 0.201
59 | CTCATACC | inactive: 0.033
60 | GATTGGGA | inactive: -0.00727
61 | CAATGATA | inactive: 0.172
62 | CTGCATAA | inactive: -0.00727
63 | AAAGCCTT | inactive: -0.0862
64 | AGTTCACC | inactive: -0.0061
65 | CGTGATAA | inactive: 0.117
66 | GAGGCCAC | inactive: -0.191
67 | CCTCACAG | inactive: -0.1
68 | GTTTGGTA | inactive: 0.135
69 | ATTCTTCG | inactive: -0.0248
70 | ATCCCTCG | inactive: -0.0432
71 | AGGTAATA | inactive: 0.0994
72 | GTGGCCCA | inactive: -0.233

Row | Sequence | PBM E-score
73 | AGGCCACA | inactive: -0.113
74 | ACTTCATC | inactive: 0.00844
75 | AGGTCGTG | inactive: 0.03
76 | GAAGGTAC | inactive: 0.0158
77 | CAAAAGCC | inactive: -0.114
78 | CGATTGTC | inactive: 0.0794
79 | AATACAGC | inactive: 0.0781
80 | CTGATCGA | inactive: -0.0424
81 | TCCCCAAA | inactive: 0.00712
82 | GACGCCTA | inactive: -0.175
83 | CCAGTGAA | inactive: -0.125
84 | CCGCGGCG | inactive: -0.216
85 | CAAGACCC | inactive: -0.113
86 | AAGACTCG | inactive: 0.0334
87 | CACGCTGA | inactive: -0.0394
88 | CAGCGCAG | inactive: -0.131
89 | CTGGTTTC | inactive: -0.0521
90 | ACCGAACT | inactive: 0.0313
91 | AGCACAAC | inactive: 0.124
92 | AAGAACAC | active: 0.312
93 | AAATTGTG | inactive: 0.136
94 | AAGGCTGA | inactive: -0.0562
95 | GACCCCAC | inactive: -0.234
96 | ACCTGACC | inactive: 0.0317

Row | Sequence | PBM E-score
97 | AAAAACAC | inactive: 0.253
98 | CAGTGCAC | inactive: -0.0496
99 | AGATGCAG | inactive: -0.00012
100 | AATTATCT | inactive: 0.163
101 | CTCTTATA | inactive: 0.0528
102 | TCAATGGA | inactive: 0.00931
103 | GGTCGTGA | inactive: 0.00406
104 | ATACTTTG | inactive: 0.111
105 | GAGAACCC | inactive: -0.153
106 | GTAGCGTA | inactive: -0.0339
107 | CAAGACGA | inactive: 0.0859
108 | CTGGCGGC | inactive: -0.23
109 | ACGTTGAT | ≥ 0.145
110 | AGTGTGCA | inactive: 0.0526
111 | ATGACATA | active: 0.379
112 | CGATGCAA | inactive: -0.0787
113 | CCGACCGG | inactive: -0.168
114 | ATTTGAGC | inactive: 0.00227
115 | ACAGCCCA | ≥ -0.0208
116 | CATAGGTA | inactive: 0.0694
117 | ATCGCTCA | inactive: -0.0123
118 | ATTCGATG | inactive: 0.092
119 | GATTTGCA | inactive: 0.0416
120 | AACTCCTG | inactive: -0.0221

Row | Sequence | PBM E-score
121 | TATCTCAA | ≥ 0.133
122 | AACCGATA | inactive: 0.101
123 | CTTATCCA | inactive: 0.0263
124 | AAAAGATA | inactive: 0.0967
125 | CCATCCCG | inactive: -0.136
126 | ACCATGGC | inactive: 0.0502
127 | GCCTTCGA | inactive: -0.142
128 | GGCAATAC | inactive: -0.0061
129 | CGAGACCG | inactive: -0.0623
130 | AAGCAGAC | inactive: 0.00377
131 | AGTGGAAA | inactive: 0.0405
132 | CCGTGCGA | inactive: -0.037
133 | CTGAAAGA | inactive: -0.0917
134 | TCTAGACA | inactive: 0.208
135 | ACATCTAG | inactive: 0.202
136 | ATCAACAC | inactive: 0.233
137 | CTTCATAC | inactive: 0.0612
138 | AATCAACA | inactive: 0.291
139 | CTTGAGCC | inactive: -0.215
140 | GAGCTCTA | inactive: -0.0532
141 | CGCCTGGA | inactive: -0.154
142 | CTGTCGCC | inactive: -0.0386

From the supplement of paper PMC3724861
